Assay results from the supplement of paper PMC8007513.
Structures can show the parent of a compound that is named as a salt. ± gives the standard error. About 130 (10%) of roughly 1,300 compounds showed an effect of 50% or more. Only a part is listed here, and it is no random draw.

Test system: Trichoderma virens ATCC 9645
Experiment: growth yield (OD600) with compound + IPBC relative to untreated control; higher = less growth inhibition
Settings: compound concentration: 100 uM, IPBC concentration: 200 ng/ml
In short: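 A biocide at 200 ng ml^−1 was co-applied to some wells, and library compounds were present in all test wells at 100 μM final. The wells held 100 μl of Trichoderma virens ATCC 9645 spores at 15,000 spores ml^−1 in potato dextrose broth, grown at 30 °C in 96-well plates, with OD600 read at 40 h and 72 h. Results are relative growth against the control without either agent, averaged across duplicate screens.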

Row | Structure (SMILES) | growth yield (40 h) | growth yield (72 h)
1 | CCCc1nc(C)c2c(=O)nc(-c3cc(S(=O)(=O)N4CCN(CC)CC4)ccc3OCC)[nH]n12 [Vardenafil] + CCCCNC(=O)OCC#CI [3-iodo-2-propynyl butylcarbamate (IPBC)] | 94.7 ± 4.8% | 97.6 ± 1.8%
2 | CCn1nc(C(=O)O)c(=O)c2cc3c(cc21)OCO3 [Cinoxacin] + CCCCNC(=O)OCC#CI [3-iodo-2-propynyl butylcarbamate (IPBC)] | 93.7 ± 3.5% | 94 ± 1.5%
3 | COCCOC(=O)C1=C(C)NC(C)=C(C(=O)OC/C=C/c2ccccc2)C1c1cccc([N+](=O)[O-])c1 (configuration not stated) [Cilnidipine] + CCCCNC(=O)OCC#CI [3-iodo-2-propynyl butylcarbamate (IPBC)] | 95.78 ± 0.48% | 96.5%
4 | O=C(NCCO[N+](=O)[O-])c1cccnc1 [Nicorandil] + CCCCNC(=O)OCC#CI [3-iodo-2-propynyl butylcarbamate (IPBC)] | 85.5 ± 1.9% | 92.9 ± 2.9%
5 | C=C1/C(=C\C=C2/CCC[C@]3(C)[C@@H]([C@H](C)/C=C/[C@@H](O)C4CC4)CC[C@@H]23)C[C@@H](O)C[C@@H]1O [Calcipotriene] + CCCCNC(=O)OCC#CI [3-iodo-2-propynyl butylcarbamate (IPBC)] | 110.2 ± 0.64% | 108%
6 | COC(=O)Nc1nc2ccc(SC(C)C)cc2[nH]1 [Methiazole] + CCCCNC(=O)OCC#CI [3-iodo-2-propynyl butylcarbamate (IPBC)] | 67.7 ± 20% | 89.4 ± 12%
7 | CN(C)CCOc1ccc(/C(=C(/CCCl)c2ccccc2)c2ccccc2)cc1 [Toremifene] + CCCCNC(=O)OCC#CI [3-iodo-2-propynyl butylcarbamate (IPBC)] | 3.49 ± 0.95% | 3.15 ± 0.42%
8 | CCN1CCN(C(=O)N[C@@H](C(=O)N[C@@H]2C(=O)N3C(C(=O)O)=C(CSc4nnnn4C)CS[C@H]23)c2ccc(O)cc2)C(=O)C1=O [Cefoperazone dihydrate] + CCCCNC(=O)OCC#CI [3-iodo-2-propynyl butylcarbamate (IPBC)] | 98.6 ± 3% | 98.3 ± 1.1%
9 | CC1=Nc2ccc(Cl)cc2S(=O)(=O)N1 [Diazoxide] + CCCCNC(=O)OCC#CI [3-iodo-2-propynyl butylcarbamate (IPBC)] | 97.4 ± 4% | 100.8 ± 0.94%
10 | Oc1ccc(OCc2ccccc2)cc1 [Monobenzone] + CCCCNC(=O)OCC#CI [3-iodo-2-propynyl butylcarbamate (IPBC)] | 50.7 ± 6.5% | 63 ± 4.3%
11 | C[C@H]1C[C@H]2[C@@H]3CCC4=CC(=O)C=C[C@]4(C)[C@@]3(F)[C@@H](O)C[C@]2(C)[C@@]1(O)C(=O)CO [Betamethasone] + CCCCNC(=O)OCC#CI [3-iodo-2-propynyl butylcarbamate (IPBC)] | 99.8 ± 14% | 101 ± 7.3%
12 | CCCCOC(=O)c1ccc(N)cc1 [Butamben] + CCCCNC(=O)OCC#CI [3-iodo-2-propynyl butylcarbamate (IPBC)] | 53.53 ± 0.16% | 70.7 ± 3.4%
13 | CCCC(C)(COC(N)=O)COC(=O)NC(C)C (configuration not stated) [Carisoprodol] + CCCCNC(=O)OCC#CI [3-iodo-2-propynyl butylcarbamate (IPBC)] | 84.8 ± 5.1% | 92.7 ± 5.5%
14 | CCC1(C)CC(=O)NC(=O)C1 [Bemegride] + CCCCNC(=O)OCC#CI [3-iodo-2-propynyl butylcarbamate (IPBC)] | 93.2 ± 1.4% | 95.86 ± 0.84%
15 | N=C(N)NC(=O)c1nc(Cl)c(N)nc1N [Amiloride hydrochloride dihydrate] + CCCCNC(=O)OCC#CI [3-iodo-2-propynyl butylcarbamate (IPBC)] | 80.4 ± 2.9% | 88.8 ± 3.2%
16 | O=C1NCN(c2ccccc2)C12CCN(CCCC(c1ccc(F)cc1)c1ccc(F)cc1)CC2 [Fluspirilen] + CCCCNC(=O)OCC#CI [3-iodo-2-propynyl butylcarbamate (IPBC)] | 99.4 ± 6.3% | 118 ± 4.2%
17 | Cc1cc(C2CCCCC2)n(O)c(=O)c1 [Ciclopirox ethanolamine] + CCCCNC(=O)OCC#CI [3-iodo-2-propynyl butylcarbamate (IPBC)] | 3.49 ± 0.32% | 2.83 ± 0.32%
18 | COc1cc(C(=O)NS(=O)(=O)c2ccccc2C)ccc1Cc1cn(C)c2ccc(NC(=O)OC3CCCC3)cc12 [Zafirlukast] + CCCCNC(=O)OCC#CI [3-iodo-2-propynyl butylcarbamate (IPBC)] | 115.3 ± 0.32% | 108 ± 2%
19 | NS(=O)(=O)c1cc(C(=O)O)c(NCc2ccco2)cc1Cl [Furosemide] + CCCCNC(=O)OCC#CI [3-iodo-2-propynyl butylcarbamate (IPBC)] | 95 ± 7% | 102 ± 3.8%
20 | NC(=O)c1ncn([C@@H]2O[C@H](CO)[C@@H](O)[C@H]2O)n1 [Ribavirin] + CCCCNC(=O)OCC#CI [3-iodo-2-propynyl butylcarbamate (IPBC)] | 89.9 ± 6.3% | 92.7 ± 2.9%
21 | CC(C)COCC(CN(Cc1ccccc1)c1ccccc1)N1CCCC1 (configuration not stated) [Bepridil hydrochloride] + CCCCNC(=O)OCC#CI [3-iodo-2-propynyl butylcarbamate (IPBC)] | 56.5 ± 1.6% | 94.39 ± 0.63%
22 | NS(=O)(=O)c1cc2c(cc1Cl)N=CNS2(=O)=O [Chlorothiazide] + CCCCNC(=O)OCC#CI [3-iodo-2-propynyl butylcarbamate (IPBC)] | 102.6 ± 0.32% | 106 ± 2.8%
23 | Cn1c(=O)c2[nH]cnc2n(C)c1=O [Aminophylline] + CCCCNC(=O)OCC#CI [3-iodo-2-propynyl butylcarbamate (IPBC)] | 93.7 ± 11% | 93.2 ± 7%
24 | CS(=O)(=O)c1ccc(C2=C(c3ccccc3)C(=O)OC2)cc1 [Rofecoxib] + CCCCNC(=O)OCC#CI [3-iodo-2-propynyl butylcarbamate (IPBC)] | 91.7 ± 11% | 96.4 ± 6.6%
25 | CN(C)CCC=C1c2ccccc2CCc2ccccc21 [Amitryptiline hydrochloride] + CCCCNC(=O)OCC#CI [3-iodo-2-propynyl butylcarbamate (IPBC)] | 80.7 ± 2.2% | 95.1 ± 2%
26 | Cc1ccnc2c1NC(=O)c1cccnc1N2C1CC1 [Nevirapine] + CCCCNC(=O)OCC#CI [3-iodo-2-propynyl butylcarbamate (IPBC)] | 89.7 ± 4.6% | 91.3 ± 2.8%
